From the supplement of paper PMC11417369 come the findings set out here.

The list shows a part of the results.

The experiment relates to PF3D7_0420300 AP2 domain 1 (GST-tagged). Briefly: gcPBM binding intensity (ln(normalized median fluorescence intensity)); higher = stronger DNA binding. The method, boiled down: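 Binding of GST-tagged P. falciparum DNA-binding domains, expressed in E. coli and used at about 25 μg on average, was carried out for 1 h in 1× PBS containing 1% milk, 0.2 mg/ml BSA, 0.5% salmon testes DNA and 0.03% Triton X-100. The target was an Agilent 4 × 180k array of primer-extended double-stranded 36-bp intergenic genomic probes plus negative controls, read with Alexa488 anti-GST antibody at 488 nm. Binding intensity is the highest Masliner-normalised natural-log median intensity across replicate spots of either probe orientation.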
For the sequence “ACATATTAGGGTCATGAACACACAAAAAAAAAAAAA [CACACA_site8218]”, the “gcPBM binding intensity (ln)” value worked out at 9.32.
Under “AATTCAGCTTTACAACGTACACAATCATATGTCTAT [XGTACX_site8113]” stands 9.28; under “TAATACATAAATGATTGTACATAAGAATTGAAACAT [XGTACX_site4583]”, 9.41.
Consider “ATGAAGATTTAAAAATGTACATATGATCTATGTCCT [XGTACX_site8409]”, for which the “gcPBM binding intensity (ln)” value turned out to be 9.09.
Under “GTGAAGGTTTATATGTGTACATATATGTATTATATA [XGTACX_site326]” stands 9.28.
Regarding “ATTTCATACAGACACACACACAAACAAACATATATA [CACACA_site979]”, the “gcPBM binding intensity (ln)” value was found to be 10.1.
With “ATTATATATACATATACACACATACGTACATACATA [CACACA_site9194]”, the “gcPBM binding intensity (ln)” value was found to be 9.72.
The figure for “TTTTTTTTTTTTAATGCACACAGTGAACTTTTACTT [CACACA_site3567]” is 9.3; for “TTTAATAAATTGTGTACACAAAACATATAAATTTCG [CACACA_site5644]” it is 9.17; for “GACATTTCTTGGGATACATGCATGTCCCAGAACAAA [TGCATGCA_site271]” it is 8.95.
Turning to “ATTATCAAGACATTGCGTACTTAAAAAAAAAAAAAT [XGTACX_site6347]”, the “gcPBM binding intensity (ln)” value worked out at 9.1.
For the sequence “TTATTATTCATATATTCACACATTAAAATTTTTCAA [CACACA_site4243]”, the “gcPBM binding intensity (ln)” value is 9.2.
“CATATATAATAATATTGTACATATATAATAATAATA [XGTACX_site3338]”: the “gcPBM binding intensity (ln)” value was 9.27.
The figure for “CATAAAAATGGATACACACACATAATATATATATAT [CACACA_site3619]” is 9.95.
As for “AAAAAAATTAATGTGTGTACTTAGATATAATGTTTA [XGTACX_site8862]”, the “gcPBM binding intensity (ln)” value is 9.38.
Under “TAATTTTTTTTTTATTGTACTTAATATTTTTAATTT [XGTACX_site5929]” stands 9.26; under “TTACAAATATTATAAAGTACAAACCAGTAGATTTTG [XGTACX_site2272]”, 9.12; under “TATTTTTTTTTTTTTTTTTTTACCTTTCCACTCAAA [CACACA_negctrl_site1454]”, 9.04.
As for “TCATTCTAAATATAAACACACATAAATATGTACATT [CACACA_site7555]”, the “gcPBM binding intensity (ln)” value amounted to 9.24.
Consider “TTTTTTTTTTTTAAAAGTACATAGTAGTAATTATAG [XGTACX_site4232]”, for which the “gcPBM binding intensity (ln)” value stood at 8.72.
Under “AAGATCATATATTCGTGGGTATAAAAAGTTATAATA [TGCATGCA_negctrl_site439]” stands 9.09; under “AGAAATATGTTGAAGCATTTATAATGTAGATATAAG [GTGCAC_negctrl_site640]”, 9.24.
Under “AAAAAAAAAAAAAATACACACAAACACAAATTAAAT [CACACA_site5982]” stands 10; under “GTAATATTATAATATACACACATAGAATATATATAT [CACACA_site413]”, 9.64; under “TAATTTACACCTACGTGTACACACAAAAATATGTTT [XGTACX_site1868]”, 9.59.
“TTTATTATCAAGATTGCACACCCTTATGAACTTTTT [CACACA_site3166]”: the “gcPBM binding intensity (ln)” value turned out to be 9.33.
As to “ACAAAAAAAAAGGAAACACACAAAAAAAAAAAATAA [CACACA_site3523]”, the “gcPBM binding intensity (ln)” value stood at 9.75.
For “ACTATATTTCTATAATGTACAAAAATAAATCATATG [XGTACX_site3337]”, the “gcPBM binding intensity (ln)” value is 9.19.
The figure for “ACCTATAAAAAATAATGTACAGGAAGAAATATAAGG [XGTACX_site5822]” is 9.63; for “TATATATATATATATGTATGCATGTCCTTTTTTATT [TGCATGCA_site344]” it is 9.35.
Under “ATTTTTTTTAAACGAAGTACAATTTGTGCATTGGAA [XGTACX_site8109]” stands 9.01.
Under TTTTTTTTTTTTGTAGTGCAAATTAAAAATATATGT stands 8.98; under “AATATATGGTTTCATGATATAAAATTCAATTTAATG [GTGCAC_negctrl_site610]”, 9.06; under “TGTTTATCATATTTGTGTCCTCATTTTTTAGTATCA [XGTACX_site947]”, 9.45.
In the case of “TTATTTCTTCAGAAAAAATTAAAAAATTAAACAATA [CACACA_negctrl_site169]”, the “gcPBM binding intensity (ln)” value was determined as 8.9.
With “ATTTTTTTTTTTTTTTTTTTTTTTTTTTTTTTATGC [CACACA_negctrl_site1018]”, the “gcPBM binding intensity (ln)” value was 8.86.
Turning to “AAAAAAAAAAAAAACACACACATATAACATATTTAA [CACACA_site6745]”, the “gcPBM binding intensity (ln)” value was found to be 9.67.
With “TGTTTACACTTTTTTTGTACACATAATTTTATTTGA [XGTACX_site3760]”, the “gcPBM binding intensity (ln)” value came out at 9.22.
On to “TATTCTAGTCTGCTTACACACATATTTATATTTATA [CACACA_site7432]”, for which the “gcPBM binding intensity (ln)” value stood at 9.8.
The figure for “TAATATTTTATTTTTGTTGTGGATCCAAAAAAAAAA [CACACA_negctrl_site846]” is 8.76; for “CTATATATTTAAAAAAGTACAAATATAAAAATATAT [XGTACX_site676]” it is 9.25; for “TTTTGTTCATACAAATTGGAACAAGACAAAAATATA [XGTACX_negctrl_site327]” it is 8.97.
“TACATAATTTTAATCACACACAAACAAACACATACA [CACACA_site194]”: the “gcPBM binding intensity (ln)” value was found to be 9.9.
For “GTAAGTATATATAATAGTACATATATATTAATATAT [XGTACX_site4314]”, the “gcPBM binding intensity (ln)” value turned out to be 9.36.
Turning to “TTTTTTTTTTTTGTAACATGCAAACAACAATATGGG [TGCATGCA_site695]”, the “gcPBM binding intensity (ln)” value worked out at 8.99.
Take “GGGAGGATATTACACAGTACCCAGGAAATCTACGGA [XGTACX_site4874]”: the “gcPBM binding intensity (ln)” value came out at 9.2.
Under “TATGTTCCGAAGGTTGTACACACATAGAAATATACA [CACACA_site9285]” stands 9.5; under “ATGTAATTGTATACATGTACGCAAACACAAAAGCAT [XGTACX_site6771]”, 9.53; under “AAGGAAAAAACAAATACACACAAAAACGCATTATAA [CACACA_site3466]”, 10.
In the case of “ATGAACTTATTTTAGTGTACTAAAAAATATGACTTC [XGTACX_site470]”, the “gcPBM binding intensity (ln)” value is 8.94.
Regarding “TAGGTCATATTTTTTGCACACAAAAAAAAATATAAA [CACACA_site3380]”, the “gcPBM binding intensity (ln)” value was determined as 9.04.
Under “TTTTTCCAATCAGATGCATGTTACTATATTTGGTTC [TGCATGCA_site52]” stands 9.2; under “CACCTCAATATTCACATACACACAATATCATCGAAG [CACACA_site1675]”, 9.53; under “TGTATAAGGTTTTTACGTTTTGAAGGATGTATTGTT [CACACA_negctrl_site1245]”, 9.43.
As for “TATCATTTTGAAGTATGTACTTATTTTATTAAAATA [XGTACX_site7784]”, the “gcPBM binding intensity (ln)” value worked out at 9.01.
Regarding “ATTATATTAAAATATTCACACACTAACGTAAATCAT [CACACA_site8887]”, the “gcPBM binding intensity (ln)” value stood at 9.4.
